According to publication PMC4336329 (PLoS ONE, 2015):
Hit rate of the full screen: of about 310,000 compounds, about 2,200 (0.71%) showed an effect of 50% or more. Effects have a minus sign here. Some of the results follow.

molecular target: human ether-à-go-go-related gene (hERG) potassium channel (human, UniProt Q12809); test: primary screen, population patch clamp on CHO cells stably expressing hERG
Sequence (Q12809 whole entry, looked up): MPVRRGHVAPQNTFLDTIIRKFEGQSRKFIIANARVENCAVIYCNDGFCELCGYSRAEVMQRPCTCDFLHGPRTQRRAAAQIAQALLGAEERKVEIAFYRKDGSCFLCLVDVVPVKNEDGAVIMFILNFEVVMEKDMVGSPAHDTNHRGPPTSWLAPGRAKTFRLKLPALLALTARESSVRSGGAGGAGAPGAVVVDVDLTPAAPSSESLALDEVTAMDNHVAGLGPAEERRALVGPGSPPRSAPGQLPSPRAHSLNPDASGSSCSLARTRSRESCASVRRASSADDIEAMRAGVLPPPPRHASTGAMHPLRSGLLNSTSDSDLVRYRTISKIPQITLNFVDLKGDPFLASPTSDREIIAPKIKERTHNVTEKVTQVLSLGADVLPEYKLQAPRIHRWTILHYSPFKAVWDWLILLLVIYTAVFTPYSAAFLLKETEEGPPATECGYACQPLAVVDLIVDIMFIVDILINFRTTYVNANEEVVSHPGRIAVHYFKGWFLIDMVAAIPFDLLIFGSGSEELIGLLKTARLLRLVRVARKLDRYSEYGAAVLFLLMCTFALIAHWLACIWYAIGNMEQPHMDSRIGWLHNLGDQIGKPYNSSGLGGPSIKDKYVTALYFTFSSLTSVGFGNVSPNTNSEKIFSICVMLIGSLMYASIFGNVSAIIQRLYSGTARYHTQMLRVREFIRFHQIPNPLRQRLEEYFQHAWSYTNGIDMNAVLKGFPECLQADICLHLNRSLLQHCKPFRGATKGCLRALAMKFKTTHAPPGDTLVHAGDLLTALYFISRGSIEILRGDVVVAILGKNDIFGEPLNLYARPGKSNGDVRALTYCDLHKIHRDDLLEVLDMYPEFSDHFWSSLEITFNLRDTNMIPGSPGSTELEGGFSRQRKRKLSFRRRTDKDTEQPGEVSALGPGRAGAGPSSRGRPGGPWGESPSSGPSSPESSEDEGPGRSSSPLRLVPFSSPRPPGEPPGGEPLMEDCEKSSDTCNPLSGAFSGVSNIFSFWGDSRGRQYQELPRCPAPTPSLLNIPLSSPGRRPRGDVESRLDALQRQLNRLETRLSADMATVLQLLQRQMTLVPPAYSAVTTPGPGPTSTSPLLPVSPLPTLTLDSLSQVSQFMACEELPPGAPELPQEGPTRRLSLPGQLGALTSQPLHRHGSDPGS

Compared with `COCCn1c(SCC(=O)Nc2ccccc2F)nnc1-c1ccoc1C`, `O=C(CSc1ncnc2c1oc1ccccc12)Nc1ccccc1C(F)(F)F` is higher in “hERG current change (%, negative = inhibition) at 1uM” value: 10.2% for the first, 14.1% for the second.

Compared with `Cc1ccc(C(=O)N2CCN(c3ccc(Cl)cc3)CC2)cc1`, `CC(=O)c1ccc(N2CCN(C(=O)C3CCN(S(=O)(=O)c4ccc(F)cc4)CC3)CC2)cc1` is lower in “hERG current change (%, negative = inhibition) at 1uM” value: 2.22% for the first, -5.59% for the second.

Compared with `COCCNC(=O)Cn1ccc2cc(S(=O)(=O)N3CCCCCC3)ccc21`, `COc1ccc2cc(S(=O)(=O)N3CCCCC3)ccc2c1S(=O)(=O)N1CCCCC1` is lower in “hERG current change (%, negative = inhibition) at 1uM” value: 17.4% for the first, 5.5% for the second.

First: CCN(CC)S(=O)(=O)c1ccc(N/N=C/c2cc(OC)ccc2O)nc1
Second: Cc1ccc(S(=O)(=O)Oc2cccc(/C=N/n3cnnc3)c2)cc1
The “hERG current change (%, negative = inhibition) at 1uM” value of the first is higher: 14% for the first, -11.8% for the second.

Going from `CC(Sc1ncnc2c1cnn2-c1ccccc1)C(=O)NCC1CCCO1` (stereo not shown) to `CC(=O)c1ccc(OCc2cc(C(=O)N3CCN(c4ccccc4)CC3C)no2)cc1` (stereo not shown), the “hERG current change (%, negative = inhibition) at 1uM” value rises from 5.58% to 15.1%.

Compared with `CC(=O)N1CCn2c3c(c(=O)c4cc(C)ccc42)CCC31` (stereo not shown), `O=C(c1ccc(N2CCN(C3CC(=O)N(c4ccc(F)cc4)C3=O)CC2)cc1)c1cccnc1` (stereo not shown) is lower in “hERG current change (%, negative = inhibition) at 1uM” value: 6.39% for the first, -19.3% for the second.

Going from `Cc1cc(C)cc(NC(=O)c2cccn2-c2ncc(C(F)(F)F)cc2Cl)c1` to `O=C(COc1ccc(C(=O)NCc2cccnc2)cc1)Nc1cccc(C(F)(F)F)c1`, the “hERG current change (%, negative = inhibition) at 1uM” value rises from -3.93% to 3.45%.

Compared with `CCc1nnc(NC(=O)c2cc3c(s2)CCCCC3)s1`, `CCC/C=C1/CCCOC(C(=O)NCc2cc(C)n(C)n2)(C(F)(F)F)C1` (stereo not shown) is lower in “hERG current change (%, negative = inhibition) at 1uM” value: 35.8% for the first, 12.3% for the second.

Compared with `CCC(=O)c1c[nH]c(C(=O)NCCCn2ccnc2)c1`, `Cc1ccccc1C(=O)c1c[nH]c(C(=O)NCc2cccs2)c1` is higher in “hERG current change (%, negative = inhibition) at 1uM” value: 9.63% for the first, 10.8% for the second.

Compared with `CCN1C(=O)C(CC(=O)Nc2ccc(C)cc2C)Nc2cc(S(=O)(=O)N(C)C)ccc21` (stereo not shown), `Cc1ccc(C)c(NS(=O)(=O)c2cc(C(=O)Nc3cccc(N(C)S(C)(=O)=O)c3)ccc2C)c1` is higher in “hERG current change (%, negative = inhibition) at 1uM” value: -12.2% for the first, -3.44% for the second.

First: O=C(CSCc1ccccc1)NCCCN1CCOCC1
Second: COc1ccc(Nc2cc(C(=O)NCCCN3CCOCC3)c3ccccc3n2)cc1OC
The “hERG current change (%, negative = inhibition) at 1uM” value of the first is higher: 12.8% for the first, 12.4% for the second.

Going from `CCn1nc(C)c(NC(=O)c2ccc(Cl)cc2)c1C` to `COC(=O)c1ccc(Cn2cc(Cl)cn2)o1`, the “hERG current change (%, negative = inhibition) at 1uM” value rises from 15.8% to 20.5%.

First: CS(=O)(=O)Nc1cccc(S(=O)(=O)N2CCN(C(=O)c3ccccc3)CC2)c1
Second: CCOC(=O)C1CN(S(=O)(=O)c2ccccc2)CCN1S(=O)(=O)c1ccccc1 (stereo not shown)
The “hERG current change (%, negative = inhibition) at 1uM” value of the first is higher: 9.36% for the first, -0.283% for the second.

Compared with `O=C(NCc1ccco1)C1c2ccccc2Oc2ccccc21`, `O=C1CC2c3ccccc3C1C1C(=O)N(CCc3ccccc3)C(=O)C21` (stereo not shown) is lower in “hERG current change (%, negative = inhibition) at 1uM” value: 15.4% for the first, 12.4% for the second.

Going from `CCc1ccc2c(c1)C1(SC(NC(C)=O)=NN1C(C)=O)C(=O)N2C(C)C` (stereo not shown) to `CC(=O)NCCc1nc2cc(NC(=O)c3ccccc3C)ccc2n1C`, the “hERG current change (%, negative = inhibition) at 1uM” value rises from 10.4% to 11.4%.

Compared with `C=CCNCCCOc1ccc(C)cc1Br.Cl`, `CCCS(=O)(=O)c1nc(S(=O)(=O)c2ccc(C)cc2)c(NCCCN(C)C)s1` is higher in “hERG current change (%, negative = inhibition) at 1uM” value: 7.37% for the first, 7.76% for the second.

First: N#CCCn1cc(C=O)c(-c2cccs2)n1
Second: Cc1ccc2nc(CSc3nc(C)cc(C)c3C#N)[nH]c2c1
The “hERG current change (%, negative = inhibition) at 1uM” value of the first is lower: 4.74% for the first, 6.27% for the second.

Going from `CCOC(=O)N1CCN(CC(=O)Nc2cc3c(cc2C(C)=O)OCO3)CC1` to `CCOc1cc(NC(=O)CCl)c(OCC)cc1NC(C)=O`, the “hERG current change (%, negative = inhibition) at 1uM” value rises from 2.2% to 8.86%.

Compared with `Cc1cc2cc(OCC(=O)O)ccc2n1C`, `O=C(COc1ccc2c(c1)CCC2)N1CCN(c2cccc(C(F)(F)F)c2)CC1` is lower in “hERG current change (%, negative = inhibition) at 1uM” value: 5.61% for the first, 2.99% for the second.

Compared with `O=C(CNC(=O)c1ccc(Br)o1)NNC(=O)c1ccccc1F`, `COc1ccccc1N(CC(=O)NCCc1ccccc1)C(=O)CCC(=O)Nc1cc(C)ccn1` is lower in “hERG current change (%, negative = inhibition) at 1uM” value: 13.3% for the first, 8.98% for the second.

Going from `O=C(CCc1nc2ccccc2c(=O)[nH]1)Nc1cccc(S(=O)(=O)N2CCCCC2)c1` to `O=C(CN1C(=O)c2cccc([N+](=O)[O-])c2C1=O)N1CCN(c2ccc(F)cc2)CC1`, the “hERG current change (%, negative = inhibition) at 1uM” value falls from 15.3% to 10.6%.

Compared with `COc1ccc(-c2c(C)oc3c(CN4CCOCC4)c(O)ccc3c2=O)cc1OC`, `CCOc1cc(CNc2ncnc3nc[nH]c23)ccc1OC` is higher in “hERG current change (%, negative = inhibition) at 1uM” value: 0.45% for the first, 6.21% for the second.

Compared with `CCOC(=O)c1c(-c2ccc(Cl)cc2)csc1NC(=O)CNCc1ccco1.O=C(O)C(=O)O`, `Cc1cc(C)cc(N(CC(=O)NCCSCc2ccco2)S(C)(=O)=O)c1` is higher in “hERG current change (%, negative = inhibition) at 1uM” value: -13.2% for the first, -2.62% for the second.

First: C/C=C(/C(=C/C)c1ccc(O)cc1)c1ccc(O)cc1
Second: Cc1ccc(N=Cc2cccc(O)c2O)c(C)c1
The “hERG current change (%, negative = inhibition) at 1uM” value of the first is higher: 11.9% for the first, -22.6% for the second.

First: CCOC(=O)c1nsnc1NCCSC(=N)N.I
Second: CCC(C)N(C(=O)COC(=O)CSc1ccc([N+](=O)[O-])cc1)C1CCS(=O)(=O)C1 (stereo not shown)
The “hERG current change (%, negative = inhibition) at 1uM” value of the first is higher: 5.12% for the first, 3.45% for the second.

Going from `CC/C(C)=N/Nc1nc2c(c(=O)[nH]c(=O)n2C)n1Cc1ccccc1` to `CCN1C(=O)N[C@@H](CCc2ccccc2)[C@@H](C(=O)OC)[C@H]1C`, the “hERG current change (%, negative = inhibition) at 1uM” value falls from 9.69% to 4.39%.

First: O=C(CSC1=N/C(=C/c2ccco2)C(=O)N1c1ccc(OC(F)F)cc1)NC1CCS(=O)(=O)C1 (stereo not shown)
Second: CSC1=NCCN1C(=O)c1c(-c2c(F)cccc2Cl)noc1C
The “hERG current change (%, negative = inhibition) at 1uM” value of the first is higher: 14.1% for the first, 6.42% for the second.

With `COc1cc(/C=N/N(c2ccccc2)c2ccccc2)ccc1O` the “hERG current change (%, negative = inhibition) at 1uM” value was 14.6%.
